Test results published in PubChem BioAssay AID686978 (National Center for Advancing Translational Sciences (NCATS), 2013).
Values joined by “and” are separate entries in the source; they are usually repeats but may differ in a detail not shown here. Identical values can stand only once. Screen size: about 420,000 compounds; about 64,000 (15%) were called active. This list was built around the results that the source calls inconclusive (neither active nor inactive); the mix of calls is not that of the screen. The call rests on the fitted dose curve; in most records, active means well fitted inhibition curve with a large enough effect; inconclusive means small, poorly fitted or top-dose-only effect; inactive means flat fitted curve, though single readings scatter. Potencies of inconclusive entries are doubtful fits and often do not repeat.
On the % scale 0 is the no-effect control and ±100 the full control effect; potency means the concentration at half of the fitted maximal effect; tags describe the fitted curve by direction and shape.

Test: qHTS for Inhibitors of human tyrosyl-DNA phosphodiesterase 1 (TDP1): qHTS in cells in absence of CPT; further: nearly all actives have a fitted effect of over 55% in size
Details: DT40 Tdp1-/- hTDP1 cells, no CPT, ATP luminescence, 48 h; activity change, negative = growth inhibition: at 46.2 µM (top of the series) unless noted
In short: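 Chicken DT40 Tdp1-/- cells stably complemented with human TDP1 were seeded at 400 cells/well with DMSO in place of 20 nM camptothecin. After compound pinning, cells grew at least 48 hr at 37 °C; viability read by CellTiter-Glo luminescence.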
For COc1ccccc1N(C)S(=O)(=O)c1ccc(C(=O)OCC(=O)Nc2ccc(C(N)=O)cc2)cc1, the Potency was inconclusive: 29.1 µM [inhibitor, single point].
For CC(C)(C)c1ccc(C2=NC(=O)C(CC(=O)O)S2)cc1 (stereo not drawn), the Potency was inconclusive: 10.3 µM [inhibitor, partial curve, poor fit].
In the case of O=C(N/N=C/C(c1ccccc1)c1ccccc1)c1ccccc1F, the “activity change, negative = growth inhibition” value is reported as inactive: -17%.
For C(=N\N1CCN(Cc2cccc3ccccc23)CC1)/c1cccs1, the Potency was inconclusive: 16.4 µM [inhibitor, single point].
With Cc1ccc(S(=O)(=O)c2c(COC(=O)c3ccc(Cl)cc3)c(-c3ccccc3)nn2C)cc1 the Potency was inconclusive: 29.1 µM [inhibitor, single point].
With COc1ccc(-n2nnnc2SCC(=O)N2CCCC2=O)cc1 the “activity change, negative = growth inhibition” value was inactive: 16.2%.
In the case of Cc1cc2ccccc2n1CCNC(=O)c1cccc(Br)c1, the Potency is reported as active: 11.6 µM.
In the case of CCOC(=O)C1(C)CCN1C(=O)c1cccc2ccccc12 (stereo not drawn), the Potency is reported as inconclusive: 18.4 µM [inhibitor, single point].
For COc1ccc(NC(=O)COC(=O)CNC(=O)COc2ccccc2)cc1OC, the Potency was inconclusive: 11.6 µM [inhibitor, partial curve, poor fit].
For CC(=O)N1Cc2ccccc2C(C)CC12CCCC2 (stereo not drawn), the Potency was inconclusive: 25.9 µM [inhibitor, single point].
For CCOc1ccc(S(=O)(=O)N2CCCCC2)cc1NC(=O)Cc1ccsc1, the Potency was inconclusive: 20.6 µM [inhibitor, single point].
For COC(=O)c1ccc(/C=C/c2c(-c3ccc(OC)cc3)sc3ccccc23)cc1, the Potency was inconclusive: 29.1 µM [inhibitor, single point].
With O=C(Nc1ccc(Cl)cc1)C1Cc2c(-c3ccccc3)ccnc2O1 (stereo not drawn) the Potency was inconclusive: 16.4 µM [inhibitor, single point].
For CCOC(=O)c1sc(NC(=O)CSc2nnc(C)s2)c(C(=O)OCC)c1C, the Potency was inconclusive: 29.1 µM [inhibitor, single point].
In the case of CCOC(=O)C1CCCC12Nc1cccc3cccc(c13)N2 (stereo not drawn), the Potency is reported as active: 14.6 µM.
In the case of O=C(CNC(=O)c1cccc(F)c1)N/N=C/c1cc(Br)ccc1OC(=O)/C=C/c1ccco1, the Potency is reported as active: 3.66 µM.
In the case of NC(=O)c1c(NC(=O)C2CCCO2)sc2c1CCCC2 (stereo not drawn), the Potency is reported as inconclusive: 29.1 µM [inhibitor, single point].
For COc1ccc2oc(=O)cc(CN3CCN(Cc4ccccc4)CC3)c2c1, the Potency was inconclusive: 20.6 µM [inhibitor, single point] and inconclusive: 29.1 µM [inhibitor, single point].
In the case of Cc1c(C(C)C[C@H](C)O)oc(=O)c2c1Oc1c(C)c(C(C)C[C@H](C)O)oc(=O)c1C2 (stereo partly drawn), the activity change, negative = growth inhibition is reported as inconclusive: -30.9% [inhibitor].
With C[C@@H]1C(c2cccc(Cl)c2)=NN(c2ccccc2)[C@H]1C(=O)N1CCOC1=O the Potency was inconclusive: 18.4 µM [inhibitor, single point].
With O=C(c1ccc2c(c1)N(Cc1ccc(Cl)cc1)C(=O)c1ccccc1S2=O)N1CCOCC1 (stereo not drawn) the Potency was inconclusive: 29.1 µM [inhibitor, single point].
For Nc1ncnc2[nH]c(=O)[nH]c12, the “activity change, negative = growth inhibition” value was inactive: 16.6%.
With CCc1nnc2sc(-c3ccc(NC(=O)CSc4ccc(Cl)cc4)cc3)nn12 the Potency was inconclusive: 25.9 µM [inhibitor, partial curve].
With COC(=O)CN(c1ccc(OCc2ccccc2)cc1)S(C)(=O)=O the Potency was inconclusive: 29.1 µM [inhibitor, single point].
With CCCc1n[nH]c(=O)c2c1nnn2Cc1ccccc1F the “activity change, negative = growth inhibition” value was inactive: -6.06%.
In the case of N#CCCn1cc(C(=O)CN2C(=O)NC3(CCc4ccccc43)C2=O)c2ccccc21 (stereo not drawn), the Potency is reported as inconclusive: 29.1 µM [inhibitor, single point].
For COc1cc(C(=O)Oc2ccc3ccc(O)cc3c2)cc(OC)c1OC, the Potency was inconclusive: 29.1 µM [inhibitor, single point].
For COCC(C)N=CC1=C(O)CC(C)(C)CC1=O (stereo not drawn), the “activity change, negative = growth inhibition” value was inactive: -10.1%.
In the case of Cc1ccc(OCC(O)CNC(C)c2ccccc2)cc1C (stereo not drawn), the “activity change, negative = growth inhibition” value is reported as inactive: -104%.
For CCc1ccc(CNc2ncnc3c2nc2n3CCCC2)cc1, the Potency was inconclusive: 20.6 µM [inhibitor, single point].
For c1cncc(-c2nc(-c3ccc4c(c3)OCO4)cs2)c1, the Potency was inconclusive: 11.6 µM [inhibitor, partial curve].
For COc1ccc(CNC(=O)CN(Cc2ccc(Cl)cc2)C(=O)c2csnn2)cc1, the Potency was inconclusive: 14.6 µM [inhibitor, partial curve].
With O=C(NCc1nnc(SCC(=O)N2CCN(c3ccccc3)CC2)o1)c1ccc(F)cc1 the Potency was active: 20.6 µM.
With CC(C)(O)C#Cc1ccc(C(=O)NC2CCCCC2)s1 the Potency was inconclusive: 23.1 µM [inhibitor, single point].
In the case of CCc1cccc(NC(=O)Cn2c(=O)ccc3cc(S(=O)(=O)N4CCC(C)CC4)ccc32)c1, the Potency is reported as active: 16.4 µM.
With CCOC(=O)CSc1nc(Cc2ccccc2)nc2ccccc12 the Potency was inconclusive: 29.1 µM [inhibitor, single point].
For Cc1ccc(-n2nnnc2CS(=O)(=O)c2ccccc2)c(C)c1, the Potency was inconclusive: 1.46 µM [inhibitor, full curve, poor fit].
For CC(=O)N(C(C)=O)N1C(=O)c2cccc3c(N4CCOCC4)ccc(c23)C1=O, the Potency was inconclusive: 0.731 µM [inhibitor, single point].
With Cc1c(O)ccc(NC(=O)/C=C/c2ccccc2)c1C the Potency was active: 14.6 µM.
For N#Cc1ccc(OCC(=O)N/N=C2/CC(c3ccccc3)Oc3ccccc32)cc1 (stereo not drawn), the Potency was inconclusive: 11.6 µM [inhibitor, partial curve, poor fit].
With Cc1cc(/C(=N/O)C(C)(C)NO)ccc1Cl the Potency was inconclusive: 29.1 µM [inhibitor, single point].
For Cc1nc2ccccc2c(=O)n1NCc1cccs1, the Potency was inconclusive: 23.1 µM [inhibitor, single point].
For Fc1cccc(/C=N/Nc2nncc3ccccc23)c1, the Potency was inconclusive: 25.9 µM [inhibitor, single point].
In the case of Cc1cc(C)c(S(=O)(=O)N2CCCCC2CCNC(=O)C(=O)NCc2cccnc2)c(C)c1 (stereo not drawn), the Potency is reported as inconclusive: 29.1 µM [inhibitor, single point].
With S=c1[nH]nc(COc2ccccc2)n1/N=C/c1cccc(Cl)c1Cl the Potency was inconclusive: 29.1 µM [inhibitor, single point].
In the case of O=C(NCCCn1ccnc1)c1[nH]c(C(F)(F)F)nc1-c1ccccc1, the “activity change, negative = growth inhibition” value is reported as inactive: 22.2%.
In the case of Cc1cc(C)c2c(CC(=O)N3CCN(c4cccc(Cl)c4)CC3)coc2c1, the Potency is reported as inconclusive: 29.1 µM [inhibitor, single point].
For Cn1c(-c2ccc3c(c2)OCO3)cnc1NCc1cccc(O)c1, the Potency was inconclusive: 29.1 µM [inhibitor, single point].
With CC1CCc2nc3ncn(Cc4ccccc4C#N)c(=O)c3cc2C1 (stereo not drawn) the Potency was inconclusive: 20.6 µM [inhibitor, single point].
With COc1ccc(-c2nn(-c3ccccc3)cc2/C=N/Nc2ccc3ccccc3n2)cc1OC the Potency was active: 4.11 µM.
For CCn1c(O)c(N=NC(=O)CNc2ccc(C)cc2)c2ccccc21, the Potency was inconclusive: 29.1 µM [inhibitor, single point].
For O=C1C(=O)N(CCS(=O)(=O)c2ccccc2)c2ccc(F)cc21, the Potency was inconclusive: 29.1 µM [inhibitor, single point].
In the case of O=[N+]([O-])c1cccc(Cl)c1NCCNS(=O)(=O)c1ccccc1, the “activity change, negative = growth inhibition” value is reported as inactive: -35.5%.
In the case of CCOC(=O)Cc1csc(NC(=O)c2ccc(C)c(S(=O)(=O)N3CCOCC3)c2)n1, the “activity change, negative = growth inhibition” value is reported as inactive: -29%.
For COc1ccc(OC)c(-c2csc(N(Cc3ccco3)C(=O)c3cccs3)n2)c1, the Potency was inconclusive: 18.4 µM [inhibitor, partial curve].
In the case of CC(C)CCNC(=S)Nc1ccc2nc3n(c(=O)c2c1)CCCCC3, the Potency is reported as inconclusive: 11.6 µM [inhibitor, partial curve].
In the case of COc1cc2c(cc1OC)/C(=C/c1ccc(Cl)cc1)C(=O)OC2, the Potency is reported as inconclusive: 18.4 µM [inhibitor, single point].
For Cc1nn(-c2ccc(F)cc2)c(Cl)c1/C=N/NC(=O)c1cccs1, the Potency was inconclusive: 8.2 µM [inhibitor, partial curve].
With Cn1c(SCc2cccc(Br)c2)nnc1-c1ccccn1 the Potency was inconclusive: 29.1 µM [inhibitor, single point].
For COc1ccc(-c2nsc(C(=O)N(c3ccc(F)cc3)C(C(=O)NC3CCCC3)c3ccc(OC)cc3)c2N)cc1 (stereo not drawn), the Potency was active: 16.4 µM.
With COc1cc(CC(=O)Nc2sc3c(c2C(N)=O)CCCC3)cc(OC)c1OC the Potency was inconclusive: 2.06 µM [inhibitor, full curve].
For Cc1ccc(N2C(=O)CC(N3CCSCC3)C2=O)c(C)c1 (stereo not drawn), the “activity change, negative = growth inhibition” value was inactive: 15.3%.
For COc1cccc(N2CCN(C(=O)c3ccc(Cn4c(=O)[nH]c5cc(OC)c(OC)cc5c4=O)cc3)CC2)c1, the Potency was active: 4.11 µM.
In the case of Clc1ccccc1SCc1nc2ccccc2[nH]1, the Potency is reported as inconclusive: 16.4 µM [inhibitor, single point].
In the case of COc1ccc(NC(=O)CN(C)C(=O)CCCc2c[nH]c3ccccc23)cc1, the Potency is reported as inconclusive: 16.4 µM [inhibitor, single point].
For CCOCCC(=O)Nc1cc(Cl)ccc1OC, the “activity change, negative = growth inhibition” value was inactive: -15.1%.
In the case of Cc1ccc(S(=O)(=O)N(C)[C@H]2C[C@H]3c4[nH]c5ccccc5c4CCN3C[C@H]2[C@H](C)O)cc1, the Potency is reported as inconclusive: 16.4 µM [inhibitor, single point].
With Cc1c(CNCCc2ccccc2)c(C(=O)O)c(C)n1-c1ccccc1 the “activity change, negative = growth inhibition” value was inactive: -6.22%.
